Patent US4623715A, “Novel peptides which are active on the central nervous system and have an action on the cholinergic system” (Hoechst Aktiengeselleschaft, priority 1984, dated 1986)
At least one peptide structure holds a part that was inferred or is arguable (an end, a ring closure or a residue). Starred links: 1 amine or outer side, 2 acyl side, 3 side chain; linkers in the order of their positions; H or OH if unused. Non-standard residues stand in square brackets, D forms with d. Residues, ends and D or L forms follow the SMILES beside them. *: point of attachment. Met(O2) = CS(=O)(=O)CC[C@H](N)C(=O)O; Glutaryl = O=C(CCCC(=O)[*:2])[*:1]; Met(O) = CS(=O)CC[C@H](N)C(=O)O; pGlu = O=C1CC[C@@H](C(=O)O)N1; NH(CH2)8NH2 = NCCCCCCCCN*

Tests used:
Format in all cases: in vivo
[1] = system: cholinergic system (striatum of rats); test: Biochemical effects in the striatum (acetylcholine and choline content) after s.c. administration; action on the cholinergic system; conditions: for Biochemical effects in the striatum: ACH (acetylcholine) / Biochemical effects in the striatum: CH (choline): rats, s.c., at the dose printed in the same line (E2), arrow up/down = content increased/reduced; for Biochemical effects in the striatum: Dose mcg/kg s.c.; (rats): s.c. dose in rats at which the ACH/CH effects of the same line are reported
Procedure: At the same time, cholinergic mechanisms in the central nervous system (CNS) are influenced. In the striatum of rats, the choline content is reduced and the acetylcholine content is increased following subcutaneous administration of 10 μg.
The action of the compounds according to the invention on the cholinergic system is determined by a method described in J. Neurochem. 20 (1973), pages 1-8.

[2] = system: amnesia induced by electric shock or scopolamine in mice; test: One-trial passive avoidance test: amnesia induced by electric shock or scopolamine; conditions: s.c. administration
rats = test: Behavior (grooming, yawning, stretching; urge to groom and move) after i.c.v. administration; conditions: graded ++, .phi., legend not given

Structure (SMILES): C[S+]([O-])CC[C@H](N)C(=O)N[C@@H](CCC(=O)O)C(=O)N[C@@H](Cc1c[nH]cn1)C(=O)N[C@@H](Cc1ccccc1)C(=O)N[C@H](CCCCN)C(=O)N[C@@H](Cc1ccccc1)C(=O)NCCCCCCCCN (stereo partly drawn) [IX, Met(O)--Glu--His--Phe--D-Lys--Phe--NH--(CH2)8 --NH2] (H-[Met(O)]EHF[dK]F-{NH(CH2)8NH2})
- Biochemical effects in the striatum: ACH (acetylcholine) [1]: .dwnarw.
- Biochemical effects in the striatum: CH (choline) [1]: .dwnarw.
- Biochemical effects in the striatum: Dose mcg/kg s.c.; (rats) [1]: 0.01 µg/kg
- minimum effective dose for weakening of amnesia [2]: 0.03 µg/kg

Structure (SMILES): CSCC[C@H](N)C(=O)N[C@@H](CCC(=O)O)C(=O)N[C@@H](Cc1c[nH]cn1)C(=O)N[C@@H](Cc1ccccc1)C(=O)N[C@@H](CCCNC(=N)N)C(=O)N[C@@H](Cc1c[nH]c2ccccc12)C(=O)NCC(=O)O [VII, Met--Glu--His--Phe--Arg--Trp--Gly--OH, reference compound]
- Behavior (Growing, yawning, stretching) (10μg i.c.v.) (rats): .phi.
- Biochemical effects in the striatum: ACH (acetylcholine) [1]: .uparw.
- Biochemical effects in the striatum: CH (choline) [1]: .dwnarw.
- Biochemical effects in the striatum: Dose mcg/kg s.c.; (rats) [1]: 10 to 1000 µg/kg

Structure (SMILES): C[S+]([O-])CC[C@H](N)C(=O)N[C@@H](CCC(=O)O)C(=O)N[C@@H](Cc1c[nH]cn1)C(=O)N[C@@H](Cc1ccccc1)C(=O)N[C@H](CCCCN)C(=O)N[C@@H](Cc1ccccc1)C(=O)O (stereo partly drawn) [VIII, Met(O)--Glu--His--Phe--D-Lys--Phe--OH, reference compound] (H-[Met(O)]EHF[dK]F-OH)
- Behavior (Growing, yawning, stretching) (10μg i.c.v.) (rats): .phi.
- Biochemical effects in the striatum: ACH (acetylcholine) [1]: .dwnarw.
- Biochemical effects in the striatum: CH (choline) [1]: .uparw.
- Biochemical effects in the striatum: Dose mcg/kg s.c.; (rats) [1]: 0.3 to 1 µg/kg

Structure (SMILES): CS(=O)(=O)CC[C@H](N)C(=O)N[C@@H](CCC(=O)O)C(=O)N[C@@H](Cc1c[nH]cn1)C(=O)N[C@@H](Cc1ccccc1)C(=O)N[C@H](CCCCN)C(=O)N[C@@H](Cc1ccccc1)C(=O)NCCCCCCCCN [X, Met(O2)--Glu--His--Phe--D-Lys--Phe--NH--(CH2)8 --NH2] (H-[Met(O2)]EHF[dK]F-{NH(CH2)8NH2})
- Behavior (Growing, yawning, stretching) (10μg i.c.v.) (rats): .phi.
- Biochemical effects in the striatum: ACH (acetylcholine) [1]: .dwnarw.
- Biochemical effects in the striatum: CH (choline) [1]: .dwnarw.
- Biochemical effects in the striatum: Dose mcg/kg s.c.; (rats) [1]: 0.01 µg/kg

Structure (SMILES): C[C@H](NC(=O)[C@H](C)NC(=O)[C@@H](N)CCS(C)(=O)=O)C(=O)N[C@@H](Cc1ccccc1)C(=O)N[C@H](CCCCN)C(=O)N[C@@H](Cc1ccccc1)C(=O)NCCCCCCCCN [XI, H--Met(O2)--Ala--Ala--Phe--D-Lys--Phe--NH--(CH2)8 --NH2] (H-[Met(O2)]AAF[dK]F-{NH(CH2)8NH2})
- Biochemical effects in the striatum: ACH (acetylcholine) [1]: .uparw.
- Biochemical effects in the striatum: CH (choline) [1]: .dwnarw.
- Biochemical effects in the striatum: Dose mcg/kg s.c.; (rats) [1]: 0.01 µg/kg

Structure (SMILES): NCCCCCCCCNC(=O)[C@H](Cc1ccccc1)NC(=O)[C@@H](CCCCN)NC(=O)[C@H](Cc1ccccc1)NC(=O)[C@H](Cc1c[nH]cn1)NC(=O)[C@H](CCC(=O)O)NC(=O)[C@@H](N)Cc1ccc(O)cc1 [XIV, H--Tyr--Glu--His--Phe--D-Lys--Phe--NH--(CH2)8 --NH2] (H-YEHF[dK]F-{NH(CH2)8NH2})
- Biochemical effects in the striatum: ACH (acetylcholine) [1]: .uparw.
- Biochemical effects in the striatum: CH (choline) [1]: .dwnarw.
- Biochemical effects in the striatum: Dose mcg/kg s.c.; (rats) [1]: 0.1 µg/kg

Structure (SMILES): NCCCCCCCCNC(=O)[C@H](Cc1ccccc1)NC(=O)[C@@H](CCCCN)NC(=O)[C@H](Cc1ccccc1)NC(=O)[C@H](Cc1c[nH]cn1)NC(=O)[C@H](CCC(=O)O)NC(=O)[C@@H]1CCC(=O)N1 [XVI, pyro-Glu--Glu--His--Phe--D-Lys--Phe--NH--(CH2)8 --NH2] ([pGlu]EHF[dK]F-{NH(CH2)8NH2})
- Biochemical effects in the striatum: ACH (acetylcholine) [1]: .uparw.
- Biochemical effects in the striatum: CH (choline) [1]: .dwnarw.
- Biochemical effects in the striatum: Dose mcg/kg s.c.; (rats) [1]: 0.1 µg/kg

Structure (SMILES): C[C@H](NC(=O)[C@H](CCC(=O)O)NC(=O)CCCC(=O)O)C(=O)N[C@@H](Cc1ccccc1)C(=O)N[C@H](CCCCN)C(=O)N[C@@H](Cc1ccccc1)C(=O)NCCCCCCCCN [XXII, HOOC--(CH2)3 --CO--Glu--Ala--Phe--D-Lys--Phe--NH--(CH8) --NH2] (Glutaryl-EAF[dK]F-{NH(CH2)8NH2})
- Biochemical effects in the striatum: ACH (acetylcholine) [1]: .dwnarw.
- Biochemical effects in the striatum: CH (choline) [1]: .dwnarw.
- Biochemical effects in the striatum: Dose mcg/kg s.c.; (rats) [1]: 0.01 µg/kg
